# The supplement of paper PMC10338343
# ± gives the standard deviation. Whole data set: some 5,500 sequences, median “pre-steady-state target cleavage rate” near 0.1, cut for the highest 2% near 0.64. The list shows a part of the results, in another mix than the full data.
# Test system: MIWI (PIWIL1) piRISC loaded with piRNA #2 (30 nt)
# Assay: pre-steady-state target cleavage rate (min^-1); MIWI and MILI are mouse PIWI proteins and EfPiwi is from a freshwater sponge; tags in brackets are library labels; higher = faster piRNA-guided slicing of the target
# Conditions: guide: piRNA #2 5'p-UUAGGUAACCCAGUAGAUCCAGAGGAAUUC; auxiliary factor: 500 nM mouse GTSF1
# Outline: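 In this Cleave-'n-Seq assay, uncleaved targets were sequenced and normalised to depth and to weakly complementary targets. They came from a transcribed, DNA-blocked target RNA library […] mixed with 1 nM active affinity-purified piRISC carrying one synthetic guide, with or without 500 nM GTSF1 partner protein, in HEPES–potassium acetate buffer at 33 °C for 0–8 or 0–960 min. After three trials were pooled and k3 was capped at 0.0001 min^-1, the pre-steady-state cleavage rate was obtained from a burst-and-steady-state fit.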
row,Sequence,pre-steady-state target cleavage rate
1,CAAUUCCUCUGGAUCUACUGGGUUAACCUAA,0.592 ± 0.072
2,GAAUUCCUCUGGAUCUACAGGGUAACCUAA,0.101 ± 0.018
3,CUAUUCCUCUGGAUCUACUCGGAUACCUAA,0.0176 ± 0.01
4,CUUAAGCUCUGGAUCUACUGGGAUACCAAA,0.0761 ± 0.025
5,GAAUUCCUCUGGAUCUAGUGCGUUACCUAA,0.0718 ± 0.0089
6,CUUAUCGACUGGAUCUACUGGGUUACCUAA,0.338 ± 0.057
7,CUUAAGCUCUGGAACUACUGGGAUACCUAA,0.0713 ± 0.0087
8,CUUAAGGUCUGGAUGUACUGGGUUACCUUA,0.0769 ± 0.019
9,CUUAAGGUCUGGCAUCUACUGGGUUACCUAA,0.145 ± 0.018
10,CUUAACCUCUCCUUCUACUGGGUUACCUAA,0.386 ± 0.039
11,GAAUACCUCUGGAUGUACUGGGUUACCUAA,0.251 ± 0.044
12,GAAUUCCUCUGGAUCUAUCUGGGUUACCUAA,0.00429 ± 0.0039
13,GAAUUCCUCUGGAUCUACUCGGUUAGCUAA,0.0782 ± 0.019
14,CUUAAGCUCUGGAUCUACUGGGAUACCUAA,0.104 ± 0.019
15,CUUAAGCUCCGGAUCUACUGGGUUACCUAA,0.165 ± 0.021
16,CUUAAGCUCUGGAUCUACUGGGUUACCUA,0.103 ± 0.02
17,CUUAAGCUCUGGAUCUACUGGGUUCACCUAA,0.0791 ± 0.013
18,GAAUUCCUCUGGAUCUCUGGGUUACCUAA,0.00502 ± 0.004
19,CUUAAGGUCUGGAUCUACUGGGUGUACCUAA,0.171 ± 0.035
20,CUUAACCUCUGGAUCUACUGGGUUUGGUAA,0.048 ± 0.012
21,CUUAAGCUGUGGAUCUACUCGGUUACCUAA,0.0342 ± 0.016
22,CUUAACCUCUGGAUCAACAGGGUUACCUAA,0.187 ± 0.024
23,CUUAACCUCUGGAUCUACUGGGCUUACCUAA,0.0324 ± 0.0087
24,GAAUUCCUCUGGAUCACUGGGUUACCUAA,0.0451 ± 0.015

row,Sequence,pre-steady-state target cleavage rate
1,GAAUUCCUGCUGGAUCUACUGGGUUACCUAA,0.323 ± 0.038
2,CUAUACCUCUGGAUCUACUGGGUUACCUUA,0.521 ± 0.1
3,CUUAAGGACUGGAUCUACUGGGAUACCUAA,0.0631 ± 0.039
4,GAAUUCCUCUGGAUCUACUGCGUUUCCUAA,0.133 ± 0.041
5,CUUAUGCUCUGGAUCUACUGGGUUACCUUA,0.0971 ± 0.014
6,CAAUUCCUCUGGAUCUACUGGGUUGCCUAA,0.442 ± 0.053
7,CAAUUCCUCUGGAUCUACUGGGUUACUUAA,0.563 ± 0.059
8,CUUAUCGUCUGGUUCUACUGGGUUACCUAA,0.4 ± 0.055
9,CUUAACCUCUGGAUCUAGUGGCUUACCUAA,0.00889 ± 0.0039
10,CUUAAGGACUGGAUCUACUGAGUUACCUAA,0.2 ± 0.072
11,CUUAAGCUCUGGAUCUACUGGGUUACGCUAA,0.272 ± 0.028
12,GAAAUCCUCUGGAUCUACAGGGUUACCUAA,0.113 ± 0.019
13,CUUAAGCUCUGGAUCUACUGGGUUAGCCUAA,0.0984 ± 0.011
14,CUUAAGGACUCGAUCUACUGGGUUAGCUAA,0.00705 ± 0.0047
15,CUUUUCUCUCUGGAUCUACUGGGUUACCUAA,0.205 ± 0.033
16,CUUAACCUCUGGAUCGACUGGGUUACCUAA,0.142 ± 0.014
17,CUUAAGCUCUGGUAUCUACUGGGUUACCUAA,0.212 ± 0.02
18,CUUAACCUCUGCUUCUACUGGGUUACCUAA,0.294 ± 0.028
19,CUUUUCCUCUGGAUCUACUGGGUUACCAUAA,0.422 ± 0.047
20,CUUAACCUCUGGAUCAACUGGGUUUCCUAA,0.0606 ± 0.015
21,CUUUUCCUCUGGAUCUACUAGGUUACCUAA,0.224 ± 0.037
22,CUUAACGUCUGGAUCUUCUGGGUUACCUAA,0.169 ± 0.018
23,CUUAACCUCAUGGAUCUACUGGGUUACCUAA,0.371 ± 0.039
24,CUAUUCCUCUGCAUCUACUCGGUUACCUAA,0.0856 ± 0.012

row,Sequence,pre-steady-state target cleavage rate
1,CUUAAGGAGUGGUUGUACUGGGUUACCUAA,0.00613 ± 0.0041
2,CUAUUCCUCUCGAUCUACUGGGUUUCCUAA,0.546 ± 0.059
3,CUUAACCUCUGGAACUACUGGGUUACCAAA,0.133 ± 0.015
4,CUUAUCCUCUGGUUCUAGUGGGUUACCUAA,0.193 ± 0.023
5,CUAUUCCUCUGGAUCUACAGGGUUAGCUAA,0.157 ± 0.035
6,CUUAAGCUCUGGAUCUAGUGGGUUACCAAA,0.038 ± 0.0085
7,GAAUUCCACUGGAUCUAGUGGGUUACCUAA,0.397 ± 0.033
8,CUUAAGGAGACCAUCUACUGGGUUACGUAA,0.0031 ± 0.0021
9,CUUAAGCUCUGGAACUAGUGGGUUACCUAA,0.0695 ± 0.0092
10,CUUAAGCUCUGGAUCUACUCGGAUACCUAA,0.0207 ± 0.01
11,CUUAAGCUCUGGAUCUACUGCCUUACCUAA,0.034 ± 0.012
12,CUUAACCUCUGGAUCUACUGGGUAUCCUAA,0.0653 ± 0.016
13,CAAUUCCUCUGGAUCAACUGGGAUACCUAA,0.248 ± 0.036
14,CAAUUCGUCUGGAACUACUGGGUUACCUAA,0.517 ± 0.05
15,CUUAACCUCUGGAUCUACUGGGUUCACCUAA,0.128 ± 0.02
16,CUUAUCCUCUGCAUCUACUGGCUUACCUAA,0.0948 ± 0.0091
17,CUUAAGCUCUGGUUCUACUGGGAUACCUAA,0.0483 ± 0.0094
18,CUUAUCCUCUCGAUCUACUGGGUAACCUAA,0.297 ± 0.029
19,CUUAACCUCUGCAUCUACUGGGUUAGCUAA,0.102 ± 0.018
20,CUUAUCCUCUGUGAUCUACUGGGUUACCUAA,0.282 ± 0.027
21,CUUAAGCUCUGGAACUACUGGGUUACCAAA,0.0717 ± 0.0099
22,CUUAACCUCGUGGAUCUACUGGGUUACCUAA,0.11 ± 0.02
23,CUUAACCUCUGGAUCAACUGCGUUACCUAA,0.311 ± 0.043
24,CUUAAGCUCUGGAUCUAGUGGGAUACCUAA,0.021 ± 0.008
